Laboratory results from US11746155B2, “Cannabinoid receptor type 1 (CB1) binding proteins and uses thereof” (Takeda Pharmaceutical Company Limited, priority 2018, dated 2023).

Molecular target: T1, CB1 (Homo sapiens, UniProt P21554)
T1 construct: host or cells: cAMP Hunter CHO-K1 CNR1 Gi cell line (CHO-K1)
Assay: cAMP assay for inverse agonism, cAMP Hunter CHO-K1 CNR1 Gi cells, forskolin only
Type: cell-based
Conditions: no agonist
Source text: The dotted purple line represents the level of cAMP released upon treatment with forskolin, the maximal amount of cAMP in the assay. The red line corresponds to CB1 small molecule agonist CP-55,940 used as control for the assay.
The humanized anti-CB1 variants were reevaluated for their ability to bind CHO-huCB-1 cells and compared to mouse parental clones M5 and M7 (FIGS. 7A and 7B) to ensure that binding was retained. The assay conditions used were similar to those described in Example 5. Following binding analysis, test variants were also evaluated for function as antagonists in the cAMP and pERK assays according to Examples 3 and 4 (FIGS. 8A, 8B, 9A, and 9B) to ensure that binding and activity was maintained after humanization. All clones retained their binding and antagonist activity.

T1 sequence (P21554 whole entry): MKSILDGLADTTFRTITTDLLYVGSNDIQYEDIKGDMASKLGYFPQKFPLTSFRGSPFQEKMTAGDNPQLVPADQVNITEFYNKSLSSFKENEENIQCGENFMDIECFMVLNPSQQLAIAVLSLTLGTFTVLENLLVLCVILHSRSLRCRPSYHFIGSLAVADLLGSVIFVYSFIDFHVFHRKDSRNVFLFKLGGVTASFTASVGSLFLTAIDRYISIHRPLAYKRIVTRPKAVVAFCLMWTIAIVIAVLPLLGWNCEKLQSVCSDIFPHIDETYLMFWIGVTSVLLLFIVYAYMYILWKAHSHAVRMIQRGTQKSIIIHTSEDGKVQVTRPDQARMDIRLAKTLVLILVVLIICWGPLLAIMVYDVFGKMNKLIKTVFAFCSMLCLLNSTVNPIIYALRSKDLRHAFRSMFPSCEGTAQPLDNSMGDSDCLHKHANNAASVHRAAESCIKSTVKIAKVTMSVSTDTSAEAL

B1: M7-H5: humanized anti-CB1 antibody variant of clone M7, human IgG1 backbone (antibody)
heavy: QVQLVQSGAEVVKPGASVKLSCKASSYTFTRYWMNWVKQAPGQGLEWIGMIDPYDSETHYNQKFKDKAILTVDKSTSTAYMELSTLRSEDTAVYFCARSQPRYYAMDYWGQGTSVTVSS[human IgG1 constant region with changes skipped]
light: DIQMTQSPSSLSASLGDRVTLTCRASQEISGFLSWLQLRPDGTIKRLIYAASSLDSGVPSRFRGSWSGTDYTLTISSLQSEDFADYYCLQYSSYPYTFGGGTKLEIKRTVAAPSVFIFPPSDEQLKSGTASVVCLLNNFYPREAKVQWKVDNALQSGNSQESVTEQDSKDSTYSLSSTLTLSKADYEKHKVYACEVTHQGLSSPVTKSFNRGEC
Inverse agonism activity in cAMP assay: inverse agonism
